Experimental data: the GPR68 mutational scans of Howard et al. (2025)

B1: GPR68, Q15743 (parent)
chain: MGNITADNSSMSCTIDHTIHQTLAPVVYVTVLVVGFPANCLSLYFGYLQIKARNELGVYLCNLTVADLFYICSLPFWLQYVLQHDNWSHGDLSCQVCGILLYENIYISVGFLCCISVDRYLAVAHPFRFHQFRTLKAAVGVSVVIWAKELLTSIYFLMHEEVIEDENQHRVCFEHYPIQAWQRAINYYRFLVGFLFPICLLLASYQGILRAVRRSHGTQKSRKDQIQRLVLSTVVIFLACFLPYHVLLLVRSVWEASCDFAKGVFNAYHFSLLLTSFNCVADPVLYCFVSETTHRDLARLRGACLAFLTCSRTGRAREAYPLGAPEASGKSGAQGEEPELLTKLHPAFQTPNSPGSGGFPTGRLA

Columns and labels:
[1] = variants of: B1; test: cAMP reporter score (Enrich2 score, wild type = 0); higher = more signal; HEK293T, FACS bins
[2] = variants of: B1; test: surface expression score (Enrich2 score, wild type = 0); higher = more signal; HEK293T, FACS bins

Row | Variant | cAMP reporter score ([1]; pH 5.5) | cAMP reporter score ([1]; pH 6) | cAMP reporter score ([1]; pH 6, modulator: ogerin) | cAMP reporter score ([1]; pH 6.5, modulator: ogerin) | surface expression score [2]
1 | F111del | -1.62 | -1.01 | -1.49 | -1.36 | -1.84
2 | C114F | 0.095 | -0.51 | -1.34 | -0.58 | -1.36
3 | C114L | -1.57 | -1.19 | -1.46 | -2.03 | -2.82
4 | C114N | -2.38 | -1.39 | -1.76 | -0.969 | -2.35
5 | C114H | -1.72 | – | -1.17 | -0.839 | -2.54
6 | C114D | -0.584 | -0.578 | -1.42 | -0.635 | -1.35
7 | C114I | 1.62 | – | 1.43 | -0.426 | -0.389
8 | C114G | -0.172 | 0.453 | -0.419 | -0.737 | -0.896
9 | C114K | -0.855 | – | – | -0.988 | -2.54
10 | C114A | -0.016 | 0.56 | -0.394 | 0.614 | 0.123
11 | C114E | -0.424 | -0.704 | – | – | –
12 | C114M | 0.576 | 0.742 | 0.265 | -0.577 | -1.9
13 | L112G | 0.326 | – | -2.85 | 0.096 | –
14 | L112E | -0.653 | -0.249 | -2.23 | -0.921 | –
15 | L112P | -0.999 | -0.59 | -0.648 | -0.41 | -0.675
16 | L112Q | -0.421 | – | – | – | -0.288
17 | L112N | -0.486 | – | – | -0.432 | –
18 | L112H | -0.402 | 1.65 | -0.637 | 0.48 | -0.138
19 | L112S | -1.07 | – | – | -0.43 | -3.84
20 | L112M | -0.105 | – | 0.272 | -0.6 | 0.015
21 | L112Y | -2.44 | – | -1.86 | -1.7 | -0.047
22 | L112T | 0.429 | – | -0.654 | – | -0.402
23 | G110del | -1.08 | – | -1.47 | -1.78 | -2.09

Row | Variant | cAMP reporter score ([1]; pH 5.5) | cAMP reporter score ([1]; pH 6) | cAMP reporter score ([1]; pH 6, modulator: ogerin) | cAMP reporter score ([1]; pH 6.5, modulator: ogerin) | surface expression score [2]
24 | V109_G110insG | -1.01 | -0.787 | -1.24 | -1.48 | -1.85
25 | F111_L112insGS | -0.429 | -0.91 | -1.09 | -1.06 | –
26 | S108_V109insG | -1.2 | 0.036 | -0.071 | – | -1.55
27 | G110_F111insGSG | -2.01 | – | – | -1.28 | -2.37
28 | G110_F111del | -1.98 | -1.22 | -1.65 | -0.772 | -2.36
29 | G110_L112del | -1.73 | -0.802 | – | -1.86 | -3.54
30 | F111_L112del | -2.16 | -2.16 | -0.801 | -1.11 | -1.04
31 | C113_C114del | -1.01 | -0.669 | -1.26 | -1.32 | -2.2
32 | C113_C114insG | -2.55 | -0.925 | -1.73 | -0.921 | -2.71
33 | C113_C114insGS | -2.26 | -0.958 | -0.977 | -1.21 | –
34 | F111_C113del | -1.31 | – | -1.08 | -1.51 | -2.73
35 | C113N | -0.838 | -0.395 | -1.2 | -1.97 | -1.14
36 | C113W | -0.7 | -1.58 | -1.11 | -1.28 | -1.18
37 | C113F | -0.31 | -1.17 | -1.14 | -1.5 | -2.28
38 | C113M | 0.733 | 1.43 | 0.716 | -0.197 | -1.45
39 | C113V | -0.394 | – | 0.034 | -0.59 | -1.01
40 | C113R | -1.78 | – | -1.04 | – | -2.2
41 | C113D | -1.73 | -0.094 | -0.507 | -2.03 | -3.19
42 | C113A | -0.909 | -0.929 | -0.909 | 1.13 | 0.159
43 | C113Y | -1.23 | -0.283 | -1.63 | -1.71 | -1.76
44 | C113I | 0.608 | -0.127 | -1.69 | -0.331 | -2.04
45 | C113P | -1.59 | -0.557 | -1.56 | -1.27 | -2.1
46 | C113E | -1.72 | -0.875 | -1.77 | -0.998 | -3.13

Row | Variant | cAMP reporter score ([1]; pH 5.5) | cAMP reporter score ([1]; pH 6) | cAMP reporter score ([1]; pH 6, modulator: ogerin) | cAMP reporter score ([1]; pH 6.5, modulator: ogerin) | surface expression score [2]
47 | C113S | 1.67 | – | -4.21 | -0.456 | –
48 | C113T | 1.07 | – | -0.415 | -0.429 | -0.375
49 | C113Q | -0.009 | -1.17 | – | -0.634 | -2.01
50 | C113G | -0.061 | – | -0.936 | -0.788 | -0.556
51 | C113K | -1.23 | -1.44 | -1.3 | -1.19 | -2.98
52 | C113H | -1.72 | -1.51 | -1.74 | -1.59 | -2.78
53 | C113L | 0.663 | -0.368 | 0.132 | -1.04 | -1.58
54 | F111S | -0.899 | -0.919 | -1.42 | -1.15 | -2.15
55 | F111Q | -1.92 | -0.756 | -0.81 | -0.791 | -2.4
56 | F111D | -1.16 | -1.53 | – | -0.888 | -3.27
57 | F111E | -1.28 | – | -0.852 | -0.996 | -2.38
58 | F111L | -1.32 | -0.006 | -1.04 | -1.04 | -1.97
59 | F111N | -1.63 | -1.23 | – | -2.03 | -2.66
60 | F111G | -0.41 | -0.534 | -0.646 | – | -0.767
61 | F111P | -0.557 | – | -0.789 | -0.912 | -1.3
62 | F111I | -0.375 | – | -0.674 | – | -0.806
63 | F111M | -1.16 | -1.19 | -1.61 | -1.15 | -1.71
64 | F111C | -1.36 | -0.713 | -1.3 | -1.59 | -1.84
65 | F111R | -0.403 | -1.32 | – | – | –
66 | F111W | -0.387 | – | -0.308 | -0.579 | -2.13
67 | F111H | -2.66 | -0.702 | -0.707 | -0.436 | –
68 | F111V | -0.48 | -0.793 | -1.6 | -2.56 | -3.11

Scores with a large standard error are left out. Two further conditions of the source, in which the scores hardly spread, are not listed. In variant names, del marks residues removed and ins residues inserted between the two positions. For some assays here: The concentration of ogerin is not given here.
